In all, about 110,000 compounds went through this assay and about 230 (0.21%) showed an effect of 50% or more. The list shows a part of the results.
Target: DPAP1 (Plasmodium falciparum, UniProt Q8IIJ9)
Test: primary screen, percent inhibition; read by cleavage of a fluorogenic dipeptide substrate; higher = more effect of the substance
Design: species or system P. falciparum D10 trophozoite lysates; single well
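Further: 30 min substrate incubation versus DMSO and 10 µM JCP410 controls.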

DPAP1, sequence (Q8IIJ9 whole entry, looked up): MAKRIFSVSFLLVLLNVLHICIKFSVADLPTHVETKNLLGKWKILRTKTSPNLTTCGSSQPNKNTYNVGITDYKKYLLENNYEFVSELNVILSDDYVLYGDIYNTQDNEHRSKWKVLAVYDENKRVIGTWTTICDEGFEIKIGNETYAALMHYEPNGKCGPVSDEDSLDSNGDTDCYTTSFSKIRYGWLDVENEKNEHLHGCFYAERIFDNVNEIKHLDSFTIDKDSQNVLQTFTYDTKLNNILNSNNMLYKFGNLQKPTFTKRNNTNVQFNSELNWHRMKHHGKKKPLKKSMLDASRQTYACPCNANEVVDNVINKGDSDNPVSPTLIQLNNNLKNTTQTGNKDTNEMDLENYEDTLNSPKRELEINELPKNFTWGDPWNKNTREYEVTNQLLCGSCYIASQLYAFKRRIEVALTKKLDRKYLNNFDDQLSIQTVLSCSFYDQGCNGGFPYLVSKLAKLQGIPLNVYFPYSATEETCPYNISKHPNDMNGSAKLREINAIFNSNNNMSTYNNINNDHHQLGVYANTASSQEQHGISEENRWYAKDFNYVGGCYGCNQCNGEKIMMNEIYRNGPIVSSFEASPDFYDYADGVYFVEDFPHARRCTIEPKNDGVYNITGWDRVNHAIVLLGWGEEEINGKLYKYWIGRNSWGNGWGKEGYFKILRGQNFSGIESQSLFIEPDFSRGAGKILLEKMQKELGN

Row | SMILES | % Inhibition @ 10 uM [%]
1 | CC(=O)N1CCC2(CC1)OC(=O)C(C)=C2C(=O)NCCC1=CCCCC1 | -0.501
2 | CC(C)(C)NC(=O)c1ccccc1Sc1ccccc1C#N | 3.49
3 | COc1ccc(C=C2C(=O)NC(=O)NC2=O)c(OC)c1OC | -8.57
4 | COc1cccc2c1Oc1ncccc1N(C(=O)CCC(=O)NCCCN1CCCCCC1)C2 | 3.37
5 | CCCc1nnc2sc(NC(=O)c3cccc(OC)c3)nn12 | 14.6
6 | CCCCC(NC(C)=O)c1nc2ccccc2n1Cc1ccccc1C (stereo not shown) | -1.29
7 | CN1C(=O)C2Cc3c([nH]c4ccccc34)C(c3cccc(Cl)c3)N2C1=S (stereo not shown) | 3.31
8 | Cc1nn(-c2ccccc2)c(O)c1N=Nc1n[nH]c(C(=O)O)n1 | 4.99
9 | Cc1ccc(C(C#N)NC(=O)[C@H](CC(C)C)NC(=O)c2cc(-c3ccccc3)c(-c3ccccc3)s2)o1 (stereo partly shown) | -6.46
10 | Cc1ccccc1CSCC(=O)NCCSc1ccccn1 | -2.9
11 | Cc1ccc(OCCOc2ccc(/C=C3/C(=N)N4C(=NC3=O)SN=C4S(C)(=O)=O)cc2)cc1 | 0.163
12 | CCn1c2ccccc2c2nc3ccccc3nc21 | -5.34
13 | CCCCN(C)S(=O)(=O)c1ccc(-c2ccc(O)nn2)o1 | -5.97
14 | COc1ccccc1Nc1nc(-c2ccc(Cl)cc2)cs1 | 2
15 | COc1ccc(C(=O)NCC(=O)O)cc1 | -1.77
16 | COc1cccc(CNC2CCCc3ccccc32)c1OC (stereo not shown) | 0.565
17 | CCOC(=O)c1nnn(-c2nonc2NC(C)=O)c1C | -0.0735
18 | COc1cc(C(=O)Nc2ccc(NC(=O)c3cccs3)cc2)cc(OC)c1OC | 2.65
19 | O=C(O)c1ccc(Oc2ccc(C(=O)c3ccc(C(=O)O)c(C(=O)O)c3)cc2)cc1 | -1.45
20 | Cc1cc(=O)n2nc(N3CCC(C(=O)NCc4cccnc4)CC3)sc2n1 | -0.281
21 | COC(=O)c1ccc(-c2nc(-c3ccc(C(F)(F)F)cc3)no2)cc1 | -4.19
22 | COC1CCCCC1NCCc1ccccc1F (stereo not shown) | 1.84
23 | Cc1ccc2c(c1)C1OCCC1C(c1ccco1)N2 (stereo not shown) | 4.67
24 | CC1=C(C(=O)OCCOc2ccccc2)C(c2cccc(Oc3ccccc3)c2)NC(=O)N1 (stereo not shown) | 4.35
25 | COc1cc(CN(C)C2CCN(C)CC2)cc(OC)c1O | -4.61
26 | CC1(C)CCCC2=C1CC(C(=O)O)C(C(=O)NCc1cccnc1)C2 (stereo not shown) | 3.72
27 | O=C(C1CCN(S(=O)(=O)N2CCC3(CC2)OCCO3)CC1)N1CCN(Cc2ccccc2)CC1 | 6.86
28 | COc1ccc(C2NC(=O)C(O)=C2C(=O)c2ccc(C)cc2)cc1 (stereo not shown) | 0.475

Source: PMC6919601, “Identification of Plasmodium dipeptidyl aminopeptidase allosteric inhibitors by high throughput screening” (PLoS ONE, 2019)
